Data as given in US11000038B2, “Pyridone compounds and agricultural and horticultural fungicides containing the same as active ingredients” (priority 2017, dated 2021).
Like-named read-outs stand apart in the source and are kept apart here.

Assays:
[1] = test system: tomato late blight fungi (Phytophthora infestans); type: in vivo; conditions: for Test F control value: tomato late blight; for Test F control value class (tomato late blight): control value=100{1-(n/3)}
[2] = test system: cucumber anthracnose fungi (Colletotrichum orbiculare); experiment: Test Example H: cucumber anthracnose, spray treatment of cucumber plants; conditions: for Test H control value: cucumber anthracnose, 6 to 10 days after inoculation; for Test H control value class (cucumber anthracnose): 2.5 ml/pot, cucumber Sagami Hanjiro, 6 to 10 days from inoculation
[3] = test system: rice blast fungi (Magnaporthe grisea); type: in vivo; conditions: for Test A control value: rice blast; for Test A control value class (rice blast): control value=100{1-(n/3)}
[4] = spray treatment of tomato plants

Cc1ccc(Cl)cc1-n1cc(Br)c(=O)c(Br)c1-c1c(F)cc(F)cc1F [Compound 239]
Test F control value [1, 4]: L (L shows the control value of 50% or less) | Test H control value ([2]; 250 ppm spray (2.5 ml/pot)): H (H shows the control value of more than 50%) | Test A control value ([3]; spray treatment of rice plants): H (H shows the control value of more than 50%)

Cc1ccccc1-n1cc(C)c(=S)c(C)c1-c1c(F)cc(F)cc1F [Compound 216]
Test F control value [1, 4]: L (L shows the control value of 50% or less) | Test H control value ([2]; 250 ppm spray (2.5 ml/pot)): H (H shows the control value of more than 50%) | Test A control value ([3]; spray treatment of rice plants): H (H shows the control value of more than 50%)

COc1cc(F)c(-c2c(Cl)c(=O)c(Br)cn2CC(C)(C)C)c(F)c1 [Compound 215]
Test F control value [1, 4]: L (L shows the control value of 50% or less) | Test H control value ([2]; 250 ppm spray (2.5 ml/pot)): L (L shows the control value of 50% or less) | Test A control value ([3]; spray treatment of rice plants): H (H shows the control value of more than 50%)

CCc1c(-c2c(F)cc(F)cc2F)n(-c2cccc(Cl)c2C)cc(C)c1=O [Compound 547]
Test F control value ([1]; spray treatment): L (L shows the control value of 50% or less) | Test H control value ([2]; 250 ppm spray): H (H shows the control value of more than 50%) | Test A control value ([3]; spray treatment): H (H shows the control value of more than 50%)

CCc1c(-c2c(F)cccc2F)n(-c2cccc(C)c2C)cc(C)c1=O [Compound 497]
Test F control value ([1]; spray treatment): L (L shows the control value of 50% or less) | Test H control value ([2]; 250 ppm spray): L (L shows the control value of 50% or less) | Test A control value ([3]; spray treatment): H (H shows the control value of more than 50%)

Cc1ccc(C)c(-n2cc(C)c(=O)c(C)c2-c2c(F)cc(F)cc2F)c1 [Compound 390]
Test F control value ([1]; spray treatment): L (L shows the control value of 50% or less) | Test H control value ([2]; 250 ppm spray): H (H shows the control value of more than 50%) | Test A control value ([3]; spray treatment): H (H shows the control value of more than 50%)

CC(C)n1cc(Cl)c(=O)c(Br)c1-c1c(F)cc(F)cc1F [Compound 11]
Test F control value class (tomato late blight) [1, 4]: L (L shows the control value of 50% or less) | Test H control value class (cucumber anthracnose) ([2]; 250 ppm spray): H (H shows the control value of more than 50%) | Test A control value class (rice blast) ([3]; spray treatment of rice plants): H (H shows the control value of more than 50%)

Cc1cn(-c2ccccc2Cl)c(-c2ccccc2)c(C)c1=O [Compound 474]
Test F control value ([1]; spray treatment): L (L shows the control value of 50% or less) | Test H control value ([2]; 250 ppm spray): H (H shows the control value of more than 50%) | Test A control value ([3]; spray treatment): H (H shows the control value of more than 50%)

Cc1cn(C(C)C(C)C)c(-c2c(F)cc(F)cc2F)c(C)c1=O (stereo not drawn) [Compound 152]
Test F control value class (tomato late blight) [1, 4]: L (L shows the control value of 50% or less) | Test H control value class (cucumber anthracnose) ([2]; 250 ppm spray): H (H shows the control value of more than 50%) | Test A control value class (rice blast) ([3]; spray treatment of rice plants): H (H shows the control value of more than 50%)

Cc1cccc(-n2cc(C)c(=O)c(C)c2-c2c(F)cc(F)cc2F)c1C [Compound 465]
Test F control value ([1]; spray treatment): L (L shows the control value of 50% or less) | Test H control value ([2]; 250 ppm spray): H (H shows the control value of more than 50%) | Test A control value ([3]; spray treatment): H (H shows the control value of more than 50%)

CNc1cccc(-n2cc(Br)c(=O)c(Cl)c2-c2c(F)cc(F)cc2F)c1C [Compound 334]
Test F control value [1, 4]: L (L shows the control value of 50% or less) | Test H control value ([2]; 250 ppm spray (2.5 ml/pot)): H (H shows the control value of more than 50%) | Test A control value ([3]; spray treatment of rice plants): H (H shows the control value of more than 50%)

CCc1c(-c2ccccc2)n(-c2cccc(Cl)c2C)cc(Br)c1=O [Compound 506]
Test F control value ([1]; spray treatment): L (L shows the control value of 50% or less) | Test H control value ([2]; 250 ppm spray): L (L shows the control value of 50% or less) | Test A control value ([3]; spray treatment): H (H shows the control value of more than 50%)

CCc1cn(CC(C)C)c(-c2c(F)cc(F)cc2F)c(CC)c1=O [Compound 281]
Test F control value [1, 4]: L (L shows the control value of 50% or less) | Test H control value ([2]; 250 ppm spray (2.5 ml/pot)): H (H shows the control value of more than 50%) | Test A control value ([3]; spray treatment of rice plants): H (H shows the control value of more than 50%)
